The source of these data is patent EP4671280A1 (Nanjing Leads Biolabs Co., Ltd., dated 2025).

For orientation: Kd means the equilibrium constant for the complex coming apart. As usually defined, the koff is the first-order rate constant of dissociation. One may read the kon as the second-order rate constant of association.

Residue numbers refer to the chain shown, from its start.

What all share (assay): BLI (ForteBio Octet RED96e), antibody captured on AHC sensor, antigen in solution, 1:1 model
For orientation: Biolayer interferometry detects binding as a change in optical thickness at a sensor tip.

Experiment [1] has as its target T1, cynomolgus monkey Nectin-4 protein (KACTUS, Cat. No. NEC-CM104) (cynomolgus monkey, UniProt A0A2K5WES1 32-349).
T1 construct: Bought protein
T1 sequence: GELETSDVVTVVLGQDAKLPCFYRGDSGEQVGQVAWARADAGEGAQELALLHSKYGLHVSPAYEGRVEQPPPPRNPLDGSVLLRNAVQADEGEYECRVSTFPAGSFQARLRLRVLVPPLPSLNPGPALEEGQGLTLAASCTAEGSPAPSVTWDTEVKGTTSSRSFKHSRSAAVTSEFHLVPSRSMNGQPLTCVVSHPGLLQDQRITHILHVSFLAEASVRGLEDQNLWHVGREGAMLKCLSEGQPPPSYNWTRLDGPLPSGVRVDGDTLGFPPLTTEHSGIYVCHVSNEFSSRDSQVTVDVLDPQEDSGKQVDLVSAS

Experiment [2] addresses T2, human Nectin-4-his protein (ACRO Biosystems, Cat. No. NE4-H52H3) (human, UniProt Q96NY8 32-349).
T2 construct: Bought protein; also called human Nectin-4 protein; not shown: his tag
T2 sequence (looked up): T1 sequence with A39V, V230I

Experiment [3] addresses human 4-1BB protein (Sino Biological, Cat. No. 10041-H08H) (human, UniProt Q07011 24-186).

B1: huH4F3-5-41BB bispecific antibody (bispecific antibody, human IgG1, kappa, L234A L235A)
heavy: QVQLVQSGAEVKKPGASVKVSCKASGYTFTSYYIHWVRQAPGQRLEWMGWIYPGNVNTKYSQKFQGRVTLTRDKSASTAYMELSSLRSEDTAVYYCARGVYYFDFWGQGTLVTVSSASTKGPSVFPLAPSSKSTSGGTAALGCLVKDYFPEPVTVSWNSGALTSGVHTFPAVLQSSGLYSLSSVVTVPSSSLGTQTYICNVNHKPSNTKVDKKV[human IgG1 Fc with L234A L235A D265A P329A (EU numbers) not spelt out]AGGGGSGGGGSGGGGSQVQLQESGGGLVQPGGSLRLSCAVSGFTFSSYAMHWVRQAPGKCLEWVAVISYDGSKKWYADSVKGRFTISRDNSKNTLYLQMNSLRAEDTAVYYCARNQGSGSYLYYYYMDVWGKGTTVTVSSGGGGSGGGGSGGGGSQSALTQPRSVSGSPGQSVTISCTGTSSDVGGYNYVSWYQQLPGKAPKVIIYEVSNRPSGVSNRFSGSKSGNTASLTISGVQSEDEADYYCSSYTSSSTFYVFGCGTQLTVL
light: DIVMTQSPDSLAVSLGERATINCKSSQSVSNDVAWYQQKPGQPPKLLIYYALNRESGVPDRFSGSGSGTDFTLTISSLQAEDVAVYYCQQDYSSPYTFGQGTKLEIKRTVAAPSVFIFPPSDEQLKSGTASVVCLLNNFYPREAKVQWKVDNALQSGNSQESVTEQDSKDSTYSLSSTLTLSKADYEKHKVYACEVTHQGLSSPVTKSFNRGEC
notes: also called humanized anti-Nectin-4×4-1BB bispecific antibody
For B1, in experiment [1], the Kd stood at 5.88 nM, the koff was 0.0018 s⁻¹ and the kon stood at 307000 M⁻¹ s⁻¹. Moreover, in experiment [2], the Kd was 0.296 nM, the koff amounted to 9.29e-05 s⁻¹ and the kon came out at 314000 M⁻¹ s⁻¹. Also, in experiment [3], the Kd was determined as 57.1 nM, the koff was found to be 0.00568 s⁻¹ and the kon stood at 99600 M⁻¹ s⁻¹.
